{"source": "the supplement of paper PMC4604168 (melanoma cell lines)", "note": "The list shows a part of the results. Single values are uncertain, as repeats are few or missing.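 Also: cell number obtained by counting DAPI-stained nuclei in high-throughput microscope images with image analysis software, screen run in 1,536-well plates.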", "data": [{"test_system": "WM1745", "assay": "cell count relative to DMSO control; melanoma cells; higher = more viable cells", "conditions": "library dose: low library concentration; 72 h", "units": {"cell count": "%"}, "values": [{"smiles": "NCC(=O)Nc1ccc(-n2nc(C(F)(F)F)cc2-c2ccc3c(ccc4ccccc43)c2)cc1", "note": "+ CN(NC(=O)CC(=O)NN(C)C(=S)c1ccccc1)C(=S)c1ccccc1 [STA4783] (first compound 1 µM, partner dose 0.006 µM)", "cell count": 46.7}, {"smiles": "OCCn1cc(-c2cnc3nnn(Cc4ccc5ncccc5c4)c3n2)cn1", "note": "+ COc1ccc(-c2ccc3c(N4CCOCC4)nc(N4C[C@@H](C)O[C@@H](C)C4)nc3n2)cc1CO [KU0063794] (first compound 1 µM, partner dose 0.02 µM)", "cell count": 94.2}, {"smiles": "Cc1nc(Nc2ncc(C(=O)Nc3c(C)cccc3Cl)s2)cc(N2CCN(CCO)CC2)n1", "note": "[dasatanib] + Cc1ccc(NC(=O)c2cccc(N(C)C)c2)cc1NC(=O)c1ccc(O)cc1 [ZM336372] (first compound 0.004 µM, partner dose 2 µM)", "cell count": 71.9}, {"smiles": "CO[C@@H]1[C@H](N(C)C(=O)c2ccccc2)C[C@H]2O[C@]1(C)n1c3ccccc3c3c4c(c5c6ccccc6n2c5c31)C(=O)NC4", "note": "[Midostaurin] + CC(C)(C)c1cnc(CSc2cnc(NC(=O)C3CCNCC3)s2)o1 [SNS-032] (first compound 0.08 µM, partner dose 0.01 µM)", "cell count": 82.1}, {"smiles": "C[C@]1(c2nc3c(C(N)=O)cccc3[nH]2)CCCN1", "note": "[Veliparib] + COc1ccc(-c2ccc3c(N4CCOCC4)nc(N4C[C@@H](C)O[C@@H](C)C4)nc3n2)cc1CO [KU0063794] (first compound 1.4 µM, partner dose 0.02 µM)", "cell count": 95.2}, {"smiles": "C[C@]1(c2nc3c(C(N)=O)cccc3[nH]2)CCCN1", "note": "[Veliparib] + NCC(=O)Nc1ccc(-n2nc(C(F)(F)F)cc2-c2ccc3c(ccc4ccccc43)c2)cc1 [OSU03012] (first compound 1.4 µM, partner dose 1 µM)", "cell count": 97.5}, {"smiles": "Cc1nc(Nc2ncc(C(=O)Nc3c(C)cccc3Cl)s2)cc(N2CCN(CCO)CC2)n1", "note": "[dasatanib] + COc1ccc(-c2ccc3c(N4CCOCC4)nc(N4C[C@@H](C)O[C@@H](C)C4)nc3n2)cc1CO [KU0063794] (first compound 0.004 µM, partner dose 0.02 µM)", "cell count": 65.9}, {"smiles": "Cc1nc(Nc2ncc(C(=O)Nc3c(C)cccc3Cl)s2)cc(N2CCN(CCO)CC2)n1", "note": "[dasatanib] + O=S(=O)(c1ccccc1)N(CC(F)(F)F)c1ccc(C(O)(C(F)(F)F)C(F)(F)F)cc1 [T0901317] (first compound 0.004 µM, partner dose 1.4 µM)", "cell count": 52.1}, {"smiles": "NC(=O)Nc1cc(-c2cccc(F)c2)sc1C(=O)N[C@H]1CCCNC1", "note": "+ COc1ccc(COc2ccc(Cc3cnc(N)nc3N)cc2OC)cc1 [GW2580] (first compound 0.02 µM, partner dose 1 µM)", "cell count": 89.5}, {"smiles": "NC(=O)Nc1cc(-c2cccc(F)c2)sc1C(=O)N[C@H]1CCCNC1", "note": "+ O=C(Nc1ccccc1)c1cc([N+](=O)[O-])ccc1Cl [GW9662] (first compound 0.02 µM, partner dose 2 µM)", "cell count": 108}, {"smiles": "C[C@]1(c2nc3c(C(N)=O)cccc3[nH]2)CCCN1", "note": "[Veliparib] + CCc1ccc(CCOc2ccc(CC3SC(=O)NC3=O)cc2)nc1 [pioglitazone] (first compound 1.4 µM, partner dose 2 µM)", "cell count": 79.9}, {"smiles": "OCCn1cc(-c2cnc3nnn(Cc4ccc5ncccc5c4)c3n2)cn1", "note": "+ COc1ccc2c(c1)CCC1C2CCC2(C)C(NCCCCCCN3C(=O)C=CC3=O)CCC12 [U73122] (first compound 1 µM, partner dose 0.4 µM)", "cell count": 96.1}, {"smiles": "Cc1nc(Nc2ncc(C(=O)Nc3c(C)cccc3Cl)s2)cc(N2CCN(CCO)CC2)n1", "note": "[dasatanib] + O=C(O)C(=O)Nc1sc2c(c1C(=O)O)CCNC2 [TCS401] (first compound 0.004 µM, partner dose 1.66667 µM)", "cell count": 53.3}, {"smiles": "NCC(=O)Nc1ccc(-n2nc(C(F)(F)F)cc2-c2ccc3c(ccc4ccccc43)c2)cc1", "note": "+ O=C1NC(=O)/C(=C/c2ccc(-c3ccc(F)cc3O)o2)S1 [AS252424] (first compound 1 µM, partner dose 1 µM)", "cell count": 108}, {"smiles": "CO[C@@H]1[C@H](N(C)C(=O)c2ccccc2)C[C@H]2O[C@]1(C)n1c3ccccc3c3c4c(c5c6ccccc6n2c5c31)C(=O)NC4", "note": "[Midostaurin] + CN(C)S(=O)(=O)c1ccc2c(c1)/C(=C/c1cc3c([nH]1)CCCC3)C(=O)N2 [SU6656] (first compound 0.08 µM, partner dose 0.4 µM)", "cell count": 58.5}, {"smiles": "C[C@]1(c2nc3c(C(N)=O)cccc3[nH]2)CCCN1", "note": "[Veliparib] + O=C(O)C(=O)Nc1sc2c(c1C(=O)O)CCNC2 [TCS401] (first compound 1.4 µM, partner dose 1.66667 µM)", "cell count": 80.3}, {"smiles": "CO[C@@H]1[C@H](N(C)C(=O)c2ccccc2)C[C@H]2O[C@]1(C)n1c3ccccc3c3c4c(c5c6ccccc6n2c5c31)C(=O)NC4", "note": "[Midostaurin] + COc1cc2ncnc(Nc3ccc(Oc4ccccc4)cc3)c2cc1OC [SrcI1] (first compound 0.08 µM, partner dose 2 µM)", "cell count": 65.5}, {"smiles": "C[C@]1(c2nc3c(C(N)=O)cccc3[nH]2)CCCN1", "note": "[Veliparib] + Oc1cc(-c2nc(-c3ccccc3)[nH]c2-c2ccncc2)ccc1Cl [L779450] (first compound 1.4 µM, partner dose 0.2 µM)", "cell count": 81.1}, {"smiles": "CO[C@@H]1[C@H](N(C)C(=O)c2ccccc2)C[C@H]2O[C@]1(C)n1c3ccccc3c3c4c(c5c6ccccc6n2c5c31)C(=O)NC4", "note": "[Midostaurin] + Cc1cc(N2CCOCC2)cc2[nH]c(-c3c(NC[C@@H](O)c4cccc(Cl)c4)cc[nH]c3=O)nc12 [BMS536924] (first compound 0.08 µM, partner dose 0.2 µM)", "cell count": 79.3}, {"smiles": "C[C@]1(c2nc3c(C(N)=O)cccc3[nH]2)CCCN1", "note": "[Veliparib] + O=C(CCCCCCC(=O)Nc1ccccc1)NO [vorinostat] (first compound 1.4 µM, partner dose 0.08 µM)", "cell count": 99.1}, {"smiles": "Cc1nc(Nc2ncc(C(=O)Nc3c(C)cccc3Cl)s2)cc(N2CCN(CCO)CC2)n1", "note": "[dasatanib] + Cc1cc([N+](=O)[O-])ccc1NS(=O)(=O)c1cc(Cl)ccc1Cl [FH535] (first compound 0.004 µM, partner dose 1 µM)", "cell count": 67.4}, {"smiles": "CO[C@@H]1[C@H](N(C)C(=O)c2ccccc2)C[C@H]2O[C@]1(C)n1c3ccccc3c3c4c(c5c6ccccc6n2c5c31)C(=O)NC4", "note": "[Midostaurin] + O=C(O)C(=O)Nc1sc2c(c1C(=O)O)CCNC2 [TCS401] (first compound 0.08 µM, partner dose 1.66667 µM)", "cell count": 95.8}, {"smiles": "C[C@]1(c2nc3c(C(N)=O)cccc3[nH]2)CCCN1", "note": "[Veliparib] + OCCn1cc(-c2cnc3nnn(Cc4ccc5ncccc5c4)c3n2)cn1 [PF04217903] (first compound 1.4 µM, partner dose 1 µM)", "cell count": 90.7}, {"smiles": "CO[C@@H]1[C@H](N(C)C(=O)c2ccccc2)C[C@H]2O[C@]1(C)n1c3ccccc3c3c4c(c5c6ccccc6n2c5c31)C(=O)NC4", "note": "[Midostaurin] + CN(NC(=O)CC(=O)NN(C)C(=S)c1ccccc1)C(=S)c1ccccc1 [STA4783] (first compound 0.08 µM, partner dose 0.006 µM)", "cell count": 52.1}, {"smiles": "NC(=O)Nc1cc(-c2cccc(F)c2)sc1C(=O)N[C@H]1CCCNC1", "note": "+ CCc1ccc(CCOc2ccc(CC3SC(=O)NC3=O)cc2)nc1 [pioglitazone] (first compound 0.02 µM, partner dose 2 µM)", "cell count": 101}, {"smiles": "CN(C)S(=O)(=O)c1ccc2c(c1)/C(=C/c1cc3c([nH]1)CCCC3)C(=O)N2", "note": "+ CC(C)CCN1c2nc(Nc3cc(F)c(O)c(F)c3)ncc2N(C)C(=O)C1C [BID1870] (first compound 0.4 µM, partner dose 0.2 µM)", "cell count": 93.7}, {"smiles": "C=CCn1c(=O)c2cnc(Nc3ccc(N4CCN(C)CC4)cc3)nc2n1-c1cccc(C(C)(C)O)n1", "note": "+ CCCCCCCCCCCC1=C(O)C(=O)C=C(O)C1=O [Embelin] (first compound 0.02 µM, partner dose 1.2 µM)", "cell count": 72.3}, {"smiles": "CO[C@@H]1[C@H](N(C)C(=O)c2ccccc2)C[C@H]2O[C@]1(C)n1c3ccccc3c3c4c(c5c6ccccc6n2c5c31)C(=O)NC4", "note": "[Midostaurin] + CCN(CC)CCCCNc1ncc2cc(-c3cc(OC)cc(OC)c3)c(NC(=O)NC(C)(C)C)nc2n1 [PD173074] (first compound 0.08 µM, partner dose 0.1 µM)", "cell count": 99.7}, {"smiles": "CO[C@@H]1[C@H](N(C)C(=O)c2ccccc2)C[C@H]2O[C@]1(C)n1c3ccccc3c3c4c(c5c6ccccc6n2c5c31)C(=O)NC4", "note": "[Midostaurin] + O=C1NC(=O)/C(=C/c2ccc(-c3ccc(F)cc3O)o2)S1 [AS252424] (first compound 0.08 µM, partner dose 1 µM)", "cell count": 81.6}, {"smiles": "OCCn1cc(-c2cnc3nnn(Cc4ccc5ncccc5c4)c3n2)cn1", "note": "+ CCc1ccc(CCOc2ccc(CC3SC(=O)NC3=O)cc2)nc1 [pioglitazone] (first compound 1 µM, partner dose 2 µM)", "cell count": 82.5}, {"smiles": "C[C@]1(c2nc3c(C(N)=O)cccc3[nH]2)CCCN1", "note": "[Veliparib] + CC1(C)NC(=O)N(c2ccc([N+](=O)[O-])c(C(F)(F)F)c2)C1=O [nilutamide] (first compound 1.4 µM, partner dose 1 µM)", "cell count": 87.8}]}]}
